# Data published in patent US9872922B2, “Anti-EFNA4 antibody-drug conjugates” (PFIZER, INC., priority 2013, dated 2018).
# T1: rat EFNA4 (Rattus norvegicus, UniProt D3ZEN1)
# T1 sequence (D3ZEN1 1-204): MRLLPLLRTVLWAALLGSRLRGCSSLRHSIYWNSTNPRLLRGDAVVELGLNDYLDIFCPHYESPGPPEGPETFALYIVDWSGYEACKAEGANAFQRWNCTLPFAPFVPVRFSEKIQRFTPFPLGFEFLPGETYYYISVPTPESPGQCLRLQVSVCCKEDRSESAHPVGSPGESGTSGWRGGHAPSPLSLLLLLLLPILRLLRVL
# T2: Ephrin-A1 (EFNA1) (Homo sapiens, UniProt P20827)
# T2 construct: His; purchased R&D
# T2 sequence (P20827 19-182): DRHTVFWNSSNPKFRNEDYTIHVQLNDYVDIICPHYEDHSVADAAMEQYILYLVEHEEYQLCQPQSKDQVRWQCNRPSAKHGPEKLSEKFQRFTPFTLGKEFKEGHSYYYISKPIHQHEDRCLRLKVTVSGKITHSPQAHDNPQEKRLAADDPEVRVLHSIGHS
# Legend:
# HEK293T-EFNA4 cells [1] = experiment: Cell binding of huE22 and huE22-AcBut-CM ADC, HEK293T-EFNA4; design: species or system human
# parental HEK293T cells = experiment: Apoptosis by Annexin V / 7AAD staining, parental HEK293T; type: cell-based, human; conditions: for % late apoptosis / % early apoptosis / % total apoptosis: HEK293T Parental, Annexin V / 7AAD
# Source text: (§1) Calicheamicin-generated DNA damage induces apoptosis, which ultimately leads to cell death (Zein et al, 1988; Nicolaou et al, 1994; Prokop et al, 2003).
# HEK293T-EFNA4 cells [2] = experiment: Apoptosis by Annexin V / 7AAD staining, HEK293T-EFNA4; type: cell-based, human; conditions: for induction of apoptosis (Annexin V): HEK293T-EFNA4; for % early apoptosis / % late apoptosis / % total apoptosis: Annexin V / 7AAD
# Source text: as §1
# rat EFNA4 = biological target: T1, rat EFNA4; experiment: SPR (BIAcore 2000) binding, rat EFNA4; conditions: 400 nM antigen
# Method: (§2) The binding constants of huE22 for human and cynomolgus monkey EFNA4 proteins were determined by surface plasmon resonance (SPR) using BIAcore 2000 (GE Healthcare) using recombinant EFNA4 extracellular domain that was fused to a histidine tag to facilitate purification. The results indicated high affinity of huE22 for both human and cynomolgus monkey EFNA4, see Table 12. The cynomolgus monkey EFNA4 protein sequence is highly homologous to human EFNA4 protein sequence, with 98% identity overall and 98% identity in the extracellular domain. […] The lack of huE22 binding to rat or mouse EFNA4 is likely explained by a non-conserved residue in the rat and mouse EFNA4 sequences within the defined huE22 epitope.
# Ephrin-A1 (EFNA1) = biological target: T2, Ephrin-A1 (EFNA1); experiment: Direct ELISA binding specificity, Ephrin-A1; conditions: biotin-labeled antibody
# Method: Further properties were determined using ELISA to analyze the binding specificity of anti-EFNA4 antibodies huE22 and huE47 to Ephrin-A4 (EFNA4) along with homologous family members Ephrin-A1 (EFNA1) and Ephrin-A3 (EFNA3). Antibody binding was determined by direct ELISA with Ephrin-A1-His, Ephrin-A3-huFc, Ephrin-A4-huFc and Ephrin-A5-huFc (all from R&D) coated on BioOne Microlon (Greiner) plates in PBS overnight at 4° C. Biotin-labeled huE22 and huE47 were incubated on the plate for 2.5 hours at room temperature and Streptavidin HRP was used to develop signal from biotin labeled antibody in the absence of interfering human IgG signal.
# HEK293T parental cells = experiment: Cell binding of huE22 and huE22-AcBut-CM ADC, HEK293T parental; design: species or system human
# cynomolgus monkey EFNA4 = experiment: SPR (BIAcore 2000) binding constants, cynomolgus monkey EFNA4; conditions: Cynomolgus monkey antigen
# Method: as §2
# [3] = In vitro stability in buffer control, PBS w/1% BSA; type: in vitro ADME; conditions: for total ADC amount remaining / total antibody amount remaining: 168 hours at 37° C., PBS w/1% BSA, mean n=3; for % total huE22 Ab remaining: Buffer (PBS w/1% BSA), mean; for % total huE22 Ab remaining / % huE22-AcBut-CM remaining: 37° C.; for % huE22-AcBut-CM remaining: buffer (PBS w/1% BSA), mean (n=3), total ADC by ELISA
# [4] = tested on: Ovarian-39 (OV39) ovarian cancer PDX; experiment: In vivo efficacy, OV39 ovarian cancer PDX; design: species or system NOD/SCID mice (human tumor PDX)
molecule,measurement,setting,value
huE22 (antibody) heavy: QVQLVQSGAEVKKPGASVKVSCKASGYTFTGYYIHWVRQAPGQGLEWMGWIYPGNFNTKYNERFKGRVTMTTDTSTSTAYMELRSLRSDDTAVYYCAREDGSPYYAMDYWGQGTSVTVSS[human IgG1 constant region omitted here] VL: DIVMTQTPLSLSVTPGQPASISCRSSQSLVHSNGNTFLYWYLQKPGQSPQLLIYRVSNRFSGVPDRFSGSGSGTDFTLKISRVEAEDVGVYYCFQATHVPWTFGGGTKVEIK,Cell binding,HEK293T-EFNA4 cells [1]; 0.3 μg/mL,446
same,Cell binding,HEK293T-EFNA4 cells [1]; 1.0 μg/mL,606
same,Cell binding,HEK293T-EFNA4 cells [1]; 3.0 μg/mL,739
same,Cell binding,HEK293T-EFNA4 cells [1]; 10.0 μg/mL,856
same,% late apoptosis,parental HEK293T cells; 1 ng/mL,1.3%
same,% early apoptosis,parental HEK293T cells; 100 ng/mL,2.8%
same,% late apoptosis,parental HEK293T cells; 100 ng/mL,1.1%
same,% total apoptosis,parental HEK293T cells; 100 ng/mL,3.9%
same,% early apoptosis,parental HEK293T cells; 1000 ng/mL,1.8%
same,% late apoptosis,parental HEK293T cells; 1000 ng/mL,0.8%
same,% total apoptosis,parental HEK293T cells; 1000 ng/mL,2.6%
same,induction of apoptosis (Annexin V),HEK293T-EFNA4 cells [2],Neither the control ADC nor huE22 mAb induced apoptosis to a significant degree
same,% early apoptosis,"HEK293T-EFNA4 cells [2]; HEK293T-EFNA4, 1 ng/mL",4.7%
same,% late apoptosis,"HEK293T-EFNA4 cells [2]; HEK293T-EFNA4, 1 ng/mL",3.1%
same,% total apoptosis,"HEK293T-EFNA4 cells [2]; HEK293T-EFNA4, 1 ng/mL",7.8%
same,% early apoptosis,"HEK293T-EFNA4 cells [2]; HEK293T-EFNA4, 100 ng/mL",6.4%
same,% total apoptosis,"HEK293T-EFNA4 cells [2]; HEK293T-EFNA4, 100 ng/mL",8.5%
same,% early apoptosis,"HEK293T-EFNA4 cells [2]; HEK293T-EFNA4, 1000 ng/mL",8.3%
same,% total apoptosis,"HEK293T-EFNA4 cells [2]; HEK293T-EFNA4, 1000 ng/mL",10.6%
same,binding to rat antigen,rat EFNA4,no huE22 binding to rat antigen was detected
same,binding to rat antigen,rat EFNA4; listed as huE22 mAb,No binding detected at
same,binding to Ephrin-A1 (EFNA1),Ephrin-A1 (EFNA1),"but not to EFNA1, EFNA3 or EFNA5"
same,Cell binding,HEK293T parental cells; 0.3 μg/mL,8.3
same,Cell binding,HEK293T parental cells; 1.0 μg/mL,6.8
same,Cell binding,HEK293T parental cells; 3.0 μg/mL,6.1
same,Cell binding,HEK293T parental cells; 10.0 μg/mL,14.5
same,koff,cynomolgus monkey EFNA4,7.8E−03 s − 1
same,kon,cynomolgus monkey EFNA4,3.8E+06 M − 1s − 1
huE22-AcBut-CM: huE22 conjugated via lysine residues to AcBut-N-acetyl-γ-calicheamicin dimethyl hydrazide (AcBut-CM) (conjugate) heavy: QVQLVQSGAEVKKPGASVKVSCKASGYTFTGYYIHWVRQAPGQGLEWMGWIYPGNFNTKYNERFKGRVTMTTDTSTSTAYMELRSLRSDDTAVYYCAREDGSPYYAMDYWGQGTSVTVSS[human IgG1 constant region omitted here] light: DIVMTQTPLSLSVTPGQPASISCRSSQSLVHSNGNTFLYWYLQKPGQSPQLLIYRVSNRFSGVPDRFSGSGSGTDFTLKISRVEAEDVGVYYCFQATHVPWTFGGGTKVEIKRTVAAPSVFIFPPSDEQLKSGTASVVCLLNNFYPREAKVQWKVDNALQSGNSQESVTEQDSKDSTYSLSSTLTLSKADYEKHKVYACEVTHQGLSSPVTKSFNRGEC,Cell binding,HEK293T-EFNA4 cells [1]; 0.3 μg/mL,446
same,Cell binding,HEK293T-EFNA4 cells [1]; 1.0 μg/mL,621
same,Cell binding,HEK293T-EFNA4 cells [1]; 3.0 μg/mL,728
same,Cell binding,HEK293T-EFNA4 cells [1]; 10.0 μg/mL,863
same,% early apoptosis,parental HEK293T cells; 1 ng/mL,6.0%
same,% late apoptosis,parental HEK293T cells; 1 ng/mL,1.6%
same,% total apoptosis,parental HEK293T cells; 1 ng/mL,7.6%
same,% late apoptosis,parental HEK293T cells; 100 ng/mL,1.6%
same,% total apoptosis,parental HEK293T cells; 100 ng/mL,5.6%
same,% early apoptosis,parental HEK293T cells; 1000 ng/mL,6.0%
same,% late apoptosis,parental HEK293T cells; 1000 ng/mL,3.4%
same,% total apoptosis,parental HEK293T cells; 1000 ng/mL,9.4%
same,induction of apoptosis (Annexin V),parental HEK293T cells; parental HEK293T,treatment of parental HEK293T cells did not
same,induction of apoptosis (Annexin V),HEK293T-EFNA4 cells [2],substantially higher levels of apoptotic cells
same,% early apoptosis,"HEK293T-EFNA4 cells [2]; HEK293T-EFNA4, 1 ng/mL",22.4%
same,% late apoptosis,"HEK293T-EFNA4 cells [2]; HEK293T-EFNA4, 1 ng/mL",7.8%
same,% total apoptosis,"HEK293T-EFNA4 cells [2]; HEK293T-EFNA4, 1 ng/mL",30.2%
same,% early apoptosis,"HEK293T-EFNA4 cells [2]; HEK293T-EFNA4, 100 ng/mL",19.0%
same,% late apoptosis,"HEK293T-EFNA4 cells [2]; HEK293T-EFNA4, 100 ng/mL",10.2%
same,% total apoptosis,"HEK293T-EFNA4 cells [2]; HEK293T-EFNA4, 100 ng/mL",29.2%
same,% early apoptosis,"HEK293T-EFNA4 cells [2]; HEK293T-EFNA4, 1000 ng/mL",17.9%
same,% late apoptosis,"HEK293T-EFNA4 cells [2]; HEK293T-EFNA4, 1000 ng/mL",8.6%
same,% total apoptosis,"HEK293T-EFNA4 cells [2]; HEK293T-EFNA4, 1000 ng/mL",26.5%
same,binding to rat antigen,rat EFNA4,No binding detected at
same,total ADC amount remaining,[3]; 1 μg/mL,94.5%
same,total antibody amount remaining,[3]; 1 μg/mL,90.5%
same,total ADC amount remaining,[3]; 50 μg/mL,88.3%
same,total antibody amount remaining,[3]; 50 μg/mL,98.6%
same,% total huE22 Ab remaining,"[3]; 1 ug/mL, 0 hours",100%
same,% total huE22 Ab remaining,"[3]; 1 ug/mL, 8 hours",86.1%
same,% total huE22 Ab remaining,"[3]; 1 ug/mL, 24 hours",87.5%
same,% total huE22 Ab remaining,"[3]; 1 ug/mL, 48 hours",91.9%
same,% total huE22 Ab remaining,"[3]; 1 ug/mL, 72 hours",92.1%
same,% total huE22 Ab remaining,"[3]; 1 ug/mL, 168 hours",90.5%
same,% total huE22 Ab remaining,"[3]; 50 ug/mL, 0 hours",100%
same,% total huE22 Ab remaining,"[3]; 50 ug/mL, 8 hours",99.5%
same,% total huE22 Ab remaining,"[3]; 50 ug/mL, 24 hours",113%
same,% total huE22 Ab remaining,"[3]; 50 ug/mL, 48 hours",111%
same,% total huE22 Ab remaining,"[3]; 50 ug/mL, 72 hours",92.9%
same,% total huE22 Ab remaining,"[3]; 50 ug/mL, 168 hours",98.6%
same,% huE22-AcBut-CM remaining,"[3]; 1 ug/mL, 0 hours",100%
same,% huE22-AcBut-CM remaining,"[3]; 1 ug/mL, 8 hours",90.6%
same,% huE22-AcBut-CM remaining,"[3]; 50 ug/mL, 0 hours",100%
same,% huE22-AcBut-CM remaining,"[3]; 50 ug/mL, 168 hours",88.3%
same,Cell binding,HEK293T parental cells; 0.3 μg/mL,6.8
same,Cell binding,HEK293T parental cells; 1.0 μg/mL,6.1
same,Cell binding,HEK293T parental cells; 3.0 μg/mL,8.2
same,Cell binding,HEK293T parental cells; 10.0 μg/mL,13.4
same,mean tumor volume,"[4]; 0.09 mg/kg, Day 0",173 ± 18
same,mean tumor volume,"[4]; 0.09 mg/kg, Day 7",355 ± 48
same,mean tumor volume,"[4]; 0.09 mg/kg, Day 14",554 ± 80
same,mean tumor volume,"[4]; 0.09 mg/kg, Day 17",609 ± 94
same,mean tumor volume,"[4]; 0.09 mg/kg, Day 21",628 ± 97
same,mean tumor volume,"[4]; 0.09 mg/kg, Day 24",614 ± 95
same,mean tumor volume,"[4]; 0.09 mg/kg, Day 28",779 ± 123
same,mean tumor volume,"[4]; 0.09 mg/kg, Day 35",934 ± 99
same,% TGI,"[4]; 0.09 mg/kg, OV39",45% TGI
same,mean tumor volume,"[4]; 0.27 mg/kg, Day 0",169 ± 21
same,mean tumor volume,"[4]; 0.27 mg/kg, Day 7",378 ± 56
same,mean tumor volume,"[4]; 0.27 mg/kg, Day 14",320 ± 73
same,mean tumor volume,"[4]; 0.27 mg/kg, Day 17",252 ± 62
same,mean tumor volume,"[4]; 0.27 mg/kg, Day 21",147 ± 28
same,mean tumor volume,"[4]; 0.27 mg/kg, Day 24",118 ± 28
same,mean tumor volume,"[4]; 0.27 mg/kg, Day 28",98 ± 25
same,mean tumor volume,"[4]; 0.27 mg/kg, Day 35",67 ± 18
same,mean tumor volume,"[4]; 0.27 mg/kg, Day 42",72 ± 23
same,mean tumor volume,"[4]; 0.27 mg/kg, Day 49",170 ± 96
same,mean tumor volume,"[4]; 0.27 mg/kg, Day 56",446 ± 337
same,mean tumor volume,"[4]; 0.27 mg/kg, Day 63",940 ± 675
same,mean tumor volume,"[4]; 0.27 mg/kg, Day 70",1194 ± 422
same,"Regression (TTP, Days)","[4]; 0.27 mg/kg, OV39",Regression (49) Days
